Here are results for two molecules from patent US20240277844A1.

The target in assay [1] is T1, CD20 on Ramos cells (human) (UniProt P11836).
T1 sequence (looked up): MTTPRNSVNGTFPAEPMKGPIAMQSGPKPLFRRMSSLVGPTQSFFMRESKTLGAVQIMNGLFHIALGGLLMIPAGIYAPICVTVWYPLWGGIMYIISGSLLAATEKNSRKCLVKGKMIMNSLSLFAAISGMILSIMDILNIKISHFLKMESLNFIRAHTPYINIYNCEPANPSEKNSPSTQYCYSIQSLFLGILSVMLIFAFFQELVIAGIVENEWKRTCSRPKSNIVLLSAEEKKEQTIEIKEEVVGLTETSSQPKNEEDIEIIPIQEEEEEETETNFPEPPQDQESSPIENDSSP
In words: cell-based or functional assay.

The next assay has as its target PN29950_LCHC. In words: SPR (Biacore), HA-tagged scFv captured on anti-HA, antibody injected, 25 C. For orientation: SPR reads the build-up and loss of mass on a sensor chip optically.
The next assay has as its target PN77570_HCLC. The assay is described as above.
The target of the next assay is PN78216_HCLC. The assay is described as above.

Where a chain is given by its changes, count along the chain named.

B1: REGN4018 (bispecific antibody, from a related filing, V domains shown, part only)
VH 1: QVQLVESGGGLVKPGGSLRLSCAASGFTFSNYYMSWVRQAPGKGLEWISYISGRGSTIFYADSVKGRITISRDNAKNSLFLQMNSLRAEDTAVYFCVKDRGGYSPYWGQGTLVTVSS
VH 2: EVQLVESGGGLVQPGRSLRLSCAASGFTFDDYSMHWVRQAPGKGLEWVSGISWNSGSKGYADSVKGRFTISRDNAKNSLYLQMNSLRAEDTALYYCAKYGSGYGKFYHYGLDVWGQGTTVTVSS
VL: [sequence of about 100 residues omitted]PITFGQGTRLEIK
Consider B1, for which, in assay [1], the Max Activity, CCL5 release (pg/ml), CBNK/CAR6 cells + Ramos/HiBiT was 8.4 pg/mL; the Max Activity, Cytotoxicity (%), CBNK/CAR6 cells + Ramos/HiBiT came out at 24.8%; the Max Activity, FasL release (pg/ml), CBNK/CAR6 cells + Ramos/HiBiT worked out at 18.1 pg/mL; the Max Activity, Granzyme A release (pg/ml), CBNK/CAR6 cells + Ramos/HiBiT was determined as 641 pg/mL. Also, in assay [1], the Max Activity, Granzyme B release (pg/ml), CBNK/CAR6 cells + Ramos/HiBiT came out at 204 pg/mL; the Max Activity, IFNγ release (pg/ml), CBNK/CAR6 cells + Ramos/HiBiT turned out to be 70.3 pg/mL; the Max Activity, TNFα release (pg/ml), CBNK/CAR6 cells + Ramos/HiBiT was 14.2 pg/mL.

B2: REGN4336 (bispecific antibody, from a related filing, V domains shown, part only)
VH 1: QVQLVESGGGVVQPGRSLRLSCAASGFTFSSYGMHWVRQAPGKGLEWVAVISYAGNNKYYADSVKGRFTVSRDNSKKTLYLQMNSLRSEDTAVYYCAKDSYYDFLTDPDVLDIWGQGTMVTVSS
VH 2: B1 VH 2 with K58I, H108Y, L111M
VL: [sequence of about 100 residues omitted]
For the molecule B2, in the assay with PN29950_LCHC, the Ab Bind (RU) was 1520 RU, the Kd was 2.03 nM, the off-rate (koff) came out at 0.000545 s⁻¹ and the kon was 269000 M⁻¹ s⁻¹. This molecule also had a t½ in the assay with PN29950_LCHC of 21.2 min. The molecule further displayed an Ab Bind (RU) with PN77570_HCLC of 1.6 RU. In the assay with PN78216_HCLC, the Ab Bind (RU) came out at 512 RU, the dissociation constant Kd was 2.01 nM, the koff was 0.000318 s⁻¹ and the kon stood at 158000 M⁻¹ s⁻¹. In the assay with PN78216_HCLC, this molecule had a t½ of 36.3 min.

A word on the Kd: it is the equilibrium constant for the complex coming apart. Broadly, the koff is the first-order rate constant of dissociation. Low readings indicate a long-lived complex, high ones a short-lived complex. The term kon denotes a measure of how fast the partners come together. A lower kon goes with slow association. For orientation: t½ means how long it takes for the measured level to halve. Higher therefore signals slow loss.
